Among all 110,000 compounds or so, about 230 (0.21%) showed an effect of 50% or more. The list shows a part of the results.
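Also: 30 min substrate incubation versus DMSO and 10 µM JCP410 controls.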

For the test, the target named is DPAP1 (Plasmodium falciparum, UniProt Q8IIJ9). The test can be described thus: primary screen, percent inhibition; read by cleavage of a fluorogenic dipeptide substrate; higher = more effect of the substance. The arrangement: species or system P. falciparum D10 trophozoite lysates; single well.
Sequence of DPAP1 (Q8IIJ9 whole entry, looked up): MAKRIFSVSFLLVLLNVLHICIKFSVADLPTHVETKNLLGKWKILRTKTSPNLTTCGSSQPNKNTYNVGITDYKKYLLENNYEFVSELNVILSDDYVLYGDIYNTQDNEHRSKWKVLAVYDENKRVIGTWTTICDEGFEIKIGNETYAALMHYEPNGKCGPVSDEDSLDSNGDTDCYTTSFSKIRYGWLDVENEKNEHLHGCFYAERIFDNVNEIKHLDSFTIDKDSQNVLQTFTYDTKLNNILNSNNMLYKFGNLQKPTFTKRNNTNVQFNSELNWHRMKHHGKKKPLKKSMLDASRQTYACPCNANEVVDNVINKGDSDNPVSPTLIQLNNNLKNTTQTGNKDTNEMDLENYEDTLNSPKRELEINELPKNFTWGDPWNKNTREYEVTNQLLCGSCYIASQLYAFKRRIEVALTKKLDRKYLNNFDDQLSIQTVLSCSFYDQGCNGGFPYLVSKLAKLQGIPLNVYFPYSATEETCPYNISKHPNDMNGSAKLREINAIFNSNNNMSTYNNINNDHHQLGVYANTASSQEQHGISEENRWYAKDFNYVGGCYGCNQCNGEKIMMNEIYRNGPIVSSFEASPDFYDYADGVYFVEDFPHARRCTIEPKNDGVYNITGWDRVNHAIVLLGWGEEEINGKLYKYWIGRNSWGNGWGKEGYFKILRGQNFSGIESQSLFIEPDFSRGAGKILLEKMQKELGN
On to `COc1cccc(NC(=O)C2(c3ccc(OC)c(OC)c3)CCOCC2)c1`, for which the “% Inhibition @ 10 uM” value is reported as -3.84%.
For `O=C(CN1C(=O)c2cccc3cccc1c23)Nc1ccc(S(=O)(=O)Nc2ccccc2)cc1` the value was -8.18%; for `CCCNC(=O)CSc1nnc(C)c2c(C)n(-c3ccc(Cl)cc3)nc12`, 1.23%; for `CN1C(=O)/C(=C/c2cc(Cl)ccc2O)S/C1=N/c1cccc(C(=O)O)c1`, 2.13%.
For `O=C(O)Cc1sc(NCc2ccccc2)nc1-c1ccccc1` the value was -2.91%; for `CC(C)c1nnc(NC(=O)CSc2nnc3c(n2)[nH]c2ccccc23)s1`, 3.34%; for `CCOCCCNC(=O)C(CC)n1nc(C)n2c(cc3sccc32)c1=O` (stereo not drawn), 4.95%.
For `Cc1nn(CC(=O)NCC(C)c2ccccc2)c(=O)c2nn(-c3ccccc3)c(C)c12` (stereo not drawn) the value was 7.36%; for `COc1ccc(-c2noc(-c3cc4c(ccc5ccccc54)oc3=O)n2)cc1`, -2.41%; for `O=C(/C=C/c1ccc(F)cc1)NC(Cc1c[nH]c2ccccc12)C(=O)O` (stereo not drawn), 0.565%.
On to `COc1cc(C(=O)Nc2ccc(C)cc2Br)cc(OC)c1OC`, for which the “% Inhibition @ 10 uM” value is -0.351%.
The same measure for `O=C(CSc1cccs1)Nc1cccc2ccccc12`: 1.59%; for `COc1ccc(S(=O)(=O)N2CCSC2c2ccc(OC)c(Br)c2)cc1` (stereo not drawn): -12.1%; for `Fc1ccccc1Nc1nc(-c2cccs2)cs1`: -3.44%.
Consider `COc1ccc(C)cc1NC(=O)/C=C/c1ccccc1`, for which the “% Inhibition @ 10 uM” value is recorded as -5.11%.
The same measure for `COc1ccc(-c2noc(-c3nnn(-c4ccc(C(F)(F)F)c(Cl)c4)c3N)n2)cc1`: 1.13%.
For `COc1ccc(CCN(C)CCC(=O)NCc2ccccc2)cc1OC` the value was -6.83%; for `Cc1ccsc1CCNC(=O)CCc1c(C)nc2c(c(C)nn2C(C)(C)C)c1C`, -2.45%; for `COc1ccc(N2CCN(c3oc(COc4cccc(C)c4)nc3C#N)CC2)cc1`, 6.13%.
With `CCN(C(=O)c1ccco1)c1ccccc1`, the “% Inhibition @ 10 uM” value was -4.31%.
Turning to `N=C1c2ccccc2CN1c1cccc(O)c1`, the “% Inhibition @ 10 uM” value is on record as -5.28%.
Take `Cc1ccc(C/N=c2/c(-c3cc(C)c(C)cc3C)c(O)c2=O)o1`: the “% Inhibition @ 10 uM” value is recorded as -4.36%.
For the compound `Cc1ccc(C)c(Cn2c(C)c(CNCCC3=CCCCC3)c(C(=O)O)c2C)c1`, the “% Inhibition @ 10 uM” value was determined as 8.86%.
Turning to `Cc1cccc(CNC(=O)c2ccc(CN3CC(=O)N4CCCCC4C3=O)cc2)c1` (stereo not drawn), the “% Inhibition @ 10 uM” value is listed as 3.7%.
The same measure for `C=CCN1C(=O)S/C(=C/c2ccccc2F)C1=O`: -0.28%.
For `CCOc1ccc(C2C3=C(O)CCCC3=Nc3nc(C(F)(F)F)nn32)cc1OC` (stereo not drawn) the value was -5.19%; for `CC(=O)CCS(=O)(=O)c1ccc2ccccc2c1`, -2.03%.
The same measure for `FC(F)(F)c1cc(-c2ccco2)nc(NCc2cccnc2)n1`: 3.33%; for `O=C1N=C(Nc2ccccc2)S/C1=C\c1ccc(N2CCCC2)o1`: 5.54%; for `CC1(C)CC(CC#N)(Cc2ccccc2)CCO1` (stereo not drawn): -4.35%.
Regarding `CC1=C(C(=O)OCC2CCCO2)C(c2ccccc2)NC(=O)N1` (stereo not drawn), the “% Inhibition @ 10 uM” value came out at 2%.
As for `Cc1nn(-c2ccccc2)c(Cl)c1C1C(C#N)=C(N)OC2=C1C(=O)CC(C)(C)C2` (stereo not drawn), the “% Inhibition @ 10 uM” value is -2.8%.
Turning to `COc1ccc(S(=O)(=O)NCc2cccnc2)cc1Br`, the “% Inhibition @ 10 uM” value is given as 0.687%.
The same measure for `CCN1CCN(CCC/N=c2/c(-c3ccccc3)c(O)c2=O)CC1`: 1.14%; for `CCN(CC)CC#CC1(OC(C)=O)CCCCC1`: 0.605%.
Turning to `O=C(NCC1OCCc2ccccc21)c1ccc(Cl)cc1Cl` (stereo not drawn), the “% Inhibition @ 10 uM” value is 0.587%.
For `CC(=O)c1cc(-c2ccc(F)cc2)n(CC(=O)N2CCN(C3CCCCC3)CC2)c1C` the value was 3.07%; for `O=C(CSc1nnc(C2COc3ccccc3O2)o1)NC1CCCCC1` (stereo not drawn), 5.1%; for `COc1ccc(-n2c(SCC(=O)NC3CCCCC3)nnc2-c2cccs2)cc1`, 0.9%.
The same measure for `Nc1c([S+](O)c2ccccc2)sc2nc3c(cc12)CCCC3` (stereo not drawn): 1%; for `Cc1ccc(S(=O)(=O)NC2CCN(c3ncccn3)CC2)cc1`: -1.11%.
For the compound `COc1cc(/C=C2/S/C(=N\c3ccccc3)N(C)C2=O)ccc1C`, the “% Inhibition @ 10 uM” value came out at 2.24%.
As for `COCCCNC(=O)CSc1[nH]c(-c2ccc(F)cc2)nc1-c1ccccc1`, the “% Inhibition @ 10 uM” value is on record as 3.48%.
The same measure for `NC(=O)c1c(NC(=O)c2cccc(Cl)c2)sc2c1CCCC2`: -6.22%; for `COC(=O)[C@H](Cc1ccccc1)NC(=O)N[C@@H](CC(C)C)C(=O)NCC#N`: -3.04%.
The same measure for `CCOC(=O)C1=C(C)OC(N)=C(C#N)C1c1ccccc1F` (stereo not drawn): -2.42%; for `CCc1ccc(CNC(=O)C2CCC(=O)N2C2CCCC2)cc1` (stereo not drawn): -1.21%; for `CC(=O)c1cccc(NC(=O)c2cccc(C(F)(F)F)c2)c1`: -6.66%.
For `Cc1ncsc1C(=O)NCc1ccc(S(N)(=O)=O)cc1` the value was 2.77%; for `CC1=NN(C(=O)Cn2c3c(c4ccccc42)CCCC3)C(O)(C(F)(F)F)C1` (stereo not drawn), -0.25%.
`O=C(Nc1cccc(-c2cc3ccccc3oc2=O)c1)c1ccccc1F`: the “% Inhibition @ 10 uM” value is listed as -5.9%.
For `COc1cc(C2=N/C(=C\c3ccc(SC)cc3)C(=O)O2)cc(OC)c1OC` the value was -20.1%.
On to `CC(=O)NS(=O)(=O)c1ccc(NC(=O)c2c(-c3ccccc3)noc2C)cc1`, for which the “% Inhibition @ 10 uM” value is given as 0.316%.
The same measure for `Cc1ccc2oc(C(=O)NCc3ccc4c(c3)OCO4)cc(=O)c2c1`: -3.24%.
For the compound `Cc1ccc(NC(=O)COc2ccc3ccccc3c2)cc1F`, the “% Inhibition @ 10 uM” value was 0.145%.
The same measure for `Cc1nn(-c2ccccc2)c(Cl)c1/C=c1\sc2nc3ccccc3n2c1=O`: 2.79%; for `CC1=C(C(=O)N2CCN(c3ccc(F)cc3)CC2)C(c2ccccc2Cl)C(C#N)=C(N)O1` (stereo not drawn): 21.9%.
For `COc1ccc(C2(C(=O)O)CCCC2)cc1OC` the value was -7.26%; for `CC(C)N(CCNC(=O)c1oc(=O)c2ccccc2c1-c1ccccc1)Cc1ccco1`, -2.88%.
For `COc1ccc(C(=O)Cc2ccc(OC)cc2C)cc1`, the “% Inhibition @ 10 uM” value was determined as 1.92%.
For `CCC(NS(=O)(=O)c1ccccc1)(C(=O)O)c1ccccc1` (stereo not drawn), the “% Inhibition @ 10 uM” value turned out to be 4.75%.
The same measure for `CCCS(=O)(=O)N1CCC(C(=O)Nc2ccc(C(=O)O)cc2)CC1`: -3.39%; for `COc1cccc(C2C3=C(O)CCCC3=Nc3ncnn32)c1` (stereo not drawn): -1.1%; for `Cc1ccc(Cn2c(C)c3cnn(CC(=O)NCCCN4CCN(C)CC4)c(=O)c3c2C)cc1`: -0.447%.
For `CC1CCCN(C(=O)C2CCN(S(=O)(=O)c3c[nH]cn3)CC2)C1` (stereo not drawn) the value was -2.29%.
On to `CCOc1ccc(C2C=C(c3ccc(C)c(C)c3)Nc3ncnn32)cc1` (stereo not drawn), for which the “% Inhibition @ 10 uM” value is recorded as -3.23%.
`O=C(CSCC(=O)Nc1cc(Cl)ccc1Cl)Nc1ccc(F)cc1`: the “% Inhibition @ 10 uM” value is listed as -1.6%.
Consider `O=S(=O)(NCCO)c1cccc2cccnc12`, for which the “% Inhibition @ 10 uM” value was 0.0289%.
For `Cc1ccc(-n2c3c(c(=O)[nH]c2=O)C(NC(=O)c2cccc(Cl)c2)(C(F)(F)F)C(=O)N3)cc1` (stereo not drawn), the “% Inhibition @ 10 uM” value worked out at 0.475%.
For `CCc1nnc(NC(=O)CSc2nc(N)cc(O)n2)s1` the value was 1.75%.
The same measure for `CC(C)(C)NC1CCCCC1NS(=O)(=O)c1ccc(Cl)cc1` (stereo not drawn): 2.62%.
The same measure for `COc1cc(C2=NOC(C(=O)NCc3cccs3)C2)cc(OC)c1OC` (stereo not drawn): -0.431%.
As to `Cc1cc(C)c(S(=O)(=O)c2ccc(Cl)cc2)c(C)c1S(=O)(=O)Nc1ccc(NC(=O)c2ccccc2)cc1`, the “% Inhibition @ 10 uM” value is listed as -3.66%.
On to `CCCC1CCc2c(sc(NC(=O)c3cc(C)oc3C)c2C#N)C1` (stereo not drawn), for which the “% Inhibition @ 10 uM” value is given as -3.9%.
The same measure for `O=C(NC1CC1)C1C2C=CC3(CN(Cc4ccccc4Cl)C(=O)C13)O2` (stereo not drawn): 0.287%; for `CC(CNC(=O)c1cnccn1)NC(=O)c1cnccn1` (stereo not drawn): -1.02%.
The same measure for `COc1ccccc1CCNc1ncnc2onc(-c3cccc(Cl)c3)c12`: -2.19%; for `CCOC(=O)/C=C(\C)CCC=C(C(C)C)C(C)C`: 0.708%.
For `Cc1cc(C(=O)C(=O)Nc2nccs2)c(C)n1-c1cccc(Cl)c1` the value was -1.06%; for `Cc1ccccc1NC(=O)CN1C(=O)S/C(=C/c2ccc3c(c2)n(C)c(=O)n3C)C1=O`, -8.36%.
Consider `CN(C)CCCSc1nnc2c(n1)[nH]c1ccccc12`, for which the “% Inhibition @ 10 uM” value amounted to 3.96%.
For `O=C(N/C=C\NC(=O)c1ccccc1)c1ccccc1` the value was -10.5%; for `COc1cc(C2C(C(=O)Nc3ccccn3)=C(C)Nc3ncnn32)ccc1OCc1ccccc1` (stereo not drawn), 4.27%.
The same measure for `Fc1ccc(C2NCCn3cccc32)cc1` (stereo not drawn): -2.18%; for `CC(C)CC1=NN(C(=O)c2ccncc2)C(O)(C(F)(F)F)C1` (stereo not drawn): -5.13%; for `N#CC1=C(SCCSC2=C(C#N)C3(CCCC3)C(C#N)C(=O)N2)NC(=O)C(C#N)C12CCCC2` (stereo not drawn): 3.01%.
The same measure for `N#CC1=C(SCC(N)=O)N=C2C(=C(O)c3ccccc32)C1c1ccccc1` (stereo not drawn): -2.24%; for `N#CC1=C(N)Oc2cc(Nc3ccccc3)ccc2C1c1cccnc1` (stereo not drawn): -10.8%; for `O=C(c1ccccc1)N1CCN(C2CC(=O)N(c3cc(Cl)cc(Cl)c3)C2=O)CC1` (stereo not drawn): 0.475%.
Regarding `Cn1c2c(s/c1=N\C(=O)c1cccs1)CCc1ccccc1-2`, the “% Inhibition @ 10 uM” value was -1.43%.
The same measure for `O=C(NCc1ccc2c(c1)OCO2)c1nc(CS(=O)(=O)c2ccc(Cl)cc2)no1`: -4.73%; for `COc1cc(OC)cc(C(=O)Nc2ccc(S(N)(=O)=O)cc2)c1`: -2.85%; for `CCN(CC)c1ncnc2c1ncn2C1OC(CO)C(O)C1O` (stereo not drawn): -1.06%.
For `CC1(C)CC(=NOC(=O)N2c3ccccc3C=Cc3ccccc32)CC(C)(C)N1` the value was -2.42%; for `Cc1c(Cl)cccc1N(CC(=O)N1CCCCCC1)S(=O)(=O)c1ccccc1`, -2.03%.
For `COc1ccc(S(=O)(=O)N(C)c2ccccc2)cc1` the value was 5.09%; for `CC(Cc1ccccc1Sc1ccccc1O)N(C)C` (stereo not drawn), -27.5%.
For the compound `CC(Cc1ccccc1)NC(=O)Cc1ccc(N)cc1` (stereo not drawn), the “% Inhibition @ 10 uM” value was found to be 1.57%.
The same measure for `CC(=O)c1c(C)[nH]c(C(=O)NCc2ccccc2Cl)c1C`: -4.14%.

The values above are taken from article PMC6919601, “Identification of Plasmodium dipeptidyl aminopeptidase allosteric inhibitors by high throughput screening” (PLoS ONE, 2019).
